We go through 46 molecules from PubChem BioAssay AID493208 (National Center for Advancing Translational Sciences (NCATS), 2011).

Hit rate of the full screen: of about 44,000 compounds, about 340 (0.77%) were called active. About 5% were inconclusive and are not listed. The call rests on the fitted dose curve; in most records, active means well fitted inhibition curve with a large enough effect; inconclusive means small, poorly fitted or top-dose-only effect; inactive means flat fitted curve, though single readings scatter. The list shows a part of the results.
Potency means the concentration at half of the fitted maximal effect.

The nature of this test: Acumen qHTS Assay for Inhibitors of the mTORC1 Signaling Pathway in MEF (Tsc2-/-, p53-/-) Cells: Sytravon. Further: nearly all actives have a fitted effect of over 50% in size.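 On activity change, negative = inhibition: plate controls were DMSO for no effect and rapamycin for full effect.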 The conditions noted are these: phospho-rpS6 immunofluorescence/PI, 24 h; series mostly up to 38.3 µM; activity change, negative = inhibition: at the top concentration. A digest of the protocol: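 Tsc2-/-, p53-/- MEFs (empty-vector stable line) in DMEM + 10% FBS were treated with compounds 24 h at 37 degree Celsius, fixed, and immunostained for phospho-rpS6 (Alexa-488) with propidium iodide counterstain. Laser-scanning cytometry gave % positive cells, normalized against 7.5 nM rapamycin and DMSO.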
For `O=C(Cc1ccc(Cl)cc1)Nc1ccc2nn(-c3ccccc3)nc2c1`, the “activity change, negative = inhibition” value was inactive: -4.81%.
Same read-out and setting: the figure for `Cc1ccccc1C(c1c(C)n(C)n(-c2ccccc2)c1=O)c1c(C)n(C)n(-c2ccccc2)c1=O` is inactive: -17.7%; for `CC(C)CCNc1ncnc2c1cnn2-c1cccc(Cl)c1` it is inactive: -1.38%.
On the same count and under the same terms, in the case of `COCCNC(=O)C(=O)NCC(c1cccnc1)N1CCN(c2ccccc2)CC1` (stereo unspecified) it was inactive: 8.53%; in that of `Cc1ccc(-n2c(SCC(=O)Nc3c(C)cccc3C)nc(O)c(C)c2=O)cc1`, inactive: -0.584%; in that of `CCC1CN(C(=O)N2CCC(C(=O)NCc3ccco3)CC2)c2ccccc2O1` (stereo unspecified), inactive: 2.86%.
The same measure, in the same setting: in the case of `CCOc1ccc2c(c1)c(=O)c(C(=O)c1ccc(C)cc1)cn2Cc1ccccc1OC` it was inactive: 0.183%.
`CC(=O)c1cccc(NC(=O)N2CCC(CN3CCCCC3)CC2)c1`: the “activity change, negative = inhibition” value was inactive: -5.16%.
Consider `CC(C)c1ccc(NC(=O)Cn2c(=O)n(Cc3nc(-c4ccccc4)no3)c(=O)c3cc4c(cc32)OCO4)cc1`, for which the “activity change, negative = inhibition” value is inactive: -14.3%.
For the molecule `CCOc1ccccc1NC(=O)CN1C(=O)C2(SCC(=O)N2c2ccc(C)cc2)c2ccccc21` (stereo unspecified), the “activity change, negative = inhibition” value was inactive: 2.15%.
The same measure, in the same setting: in the case of `Cc1ccc(-n2ncc3c(=O)n(Cc4ccccc4C)cnc32)cc1C` it was inactive: -0.428%.
Take `Cc1cc(C)c(CN2C(=O)c3ccccc3S(=O)(=O)c3ccc(C(=O)OCC4CCCO4)cc32)c(C)c1` (stereo unspecified): the “activity change, negative = inhibition” value was inactive: -4.9%.
On the same count and under the same terms, in the case of `CCc1ccc(NC(=O)c2ccc(F)c(S(=O)(=O)NCCc3ccc(OC)c(OC)c3)c2)cc1` it was inactive: -17.7%; in that of `COc1cc(Cl)c(NC(=O)C(NS(=O)(=O)c2cccs2)C(C)C)c(OC)c1` (stereo unspecified), inactive: 0%; in that of `CCCN(Cc1cccs1)C(=O)Nc1ccc(F)c(Cl)c1`, inactive: -8.59%.
Take `COc1ccc(OC)c(Nc2c3c(nc4ccccc24)CCC3)c1`: the Potency was active: 5.21 µM.
For the molecule `CS(=O)(=O)N1CCc2cc(C(=O)Nc3ccc(S(N)(=O)=O)cc3)ccc21`, the “activity change, negative = inhibition” value was inactive: -1.51%.
For `COc1cccc(Nc2sc(C(=O)c3ccc(Cl)cc3)c(N)c2C(=O)NCCc2ccc(OC)c(OC)c2)c1`, the “activity change, negative = inhibition” value was inactive: 0.226%.
With `CCCSc1nnc2n(-c3cccc(C)c3)c(=O)c3c4c(sc3n12)CCCC4`, the “activity change, negative = inhibition” value is inactive: -15%.
`Cc1cccc(C(=O)OCc2cc(=O)n3nc(-c4cccs4)sc3n2)c1`: the “activity change, negative = inhibition” value is inactive: -8.85%.
Same read-out and setting: in the case of `Cc1ccc(-n2ncc(C(=O)NCCCN3CCN(C)CC3)c2C2CCN(C(=O)OC(C)(C)C)CC2)c(C)c1` it was inactive: 3.86%.
Consider `CC(C)(C)OC(=O)N1CCC(c2c(C(=O)N3CCCCC3)cnn2-c2ccc(F)cc2F)CC1`, for which the “activity change, negative = inhibition” value was inactive: 3.5%.
Same read-out and setting: in the case of `Cn1c(Oc2ccccc2)nc2c1c(=O)n(Cc1ccc(Cl)cc1Cl)c(=O)n2C` it was inactive: -0.318%.
Same read-out and setting: the figure for `O=C(CCn1cnc2onc(-c3ccc(F)cc3)c2c1=O)N1CCN(c2ccccc2F)CC1` is inactive: -7.25%.
With `CCOC(=O)C1CCCN(C(=O)c2ccc(NC(=O)c3nsc4ccccc34)cc2)C1` (stereo unspecified), the “activity change, negative = inhibition” value was inactive: 12.8%.
Regarding `Cc1ccc2c(CC(=O)N(Cc3cccc(Cl)c3)C3CCS(=O)(=O)C3)coc2c1` (stereo unspecified), the “activity change, negative = inhibition” value is inactive: -2.74%.
Turning to `Cc1ccc(C(=O)CC2(O)C(=O)N(Cc3ccccc3)c3ccccc32)c(C)c1` (stereo unspecified), the Potency is active: 18.5 µM.
As to `CNS(=O)(=O)c1cn(CC(=O)N2CCN(c3ccccc3OC)CC2)cc1S(=O)(=O)NC`, the “activity change, negative = inhibition” value was inactive: -0.0851%.
The same measure, in the same setting: the figure for `COC(=O)c1ccccc1NC(=O)Cn1c(=O)cc(C)c2c(C)nn(-c3cccc(Cl)c3C)c21` is inactive: 3.23%; for `COc1ccc(Cl)cc1NC(=O)Cn1cnc2sc(C)c(S(=O)(=O)N3CCN(c4ccccc4OC)CC3)c2c1=O` it is inactive: 0.724%; for `O=C(CC1Nc2cccc3cccc(c23)NC1=O)Nc1ccc(F)cc1` (stereo unspecified) it is inactive: -10.4%.
Still for that read-out and setting: in the case of `Cc1ccc2c(c1)C(c1ccc(F)cc1)N(C(=O)c1cccc(C(F)(F)F)c1)CC(=O)N2` (stereo unspecified) it was inactive: -12.4%; in that of `Cc1ccc(-n2nnnc2CNC(=O)c2ccccc2C)cc1C`, inactive: 3.62%; in that of `COc1cccc(N2CCN(Cc3cc(=O)oc4cc(C)ccc34)CC2)c1`, inactive: -2.69%.
Turning to `N#Cc1cccc(NC(=O)CCNS(=O)(=O)c2ccc3c(c2)CCN3C(=O)C2CC2)c1`, the “activity change, negative = inhibition” value was inactive: 4.19%.
The same measure, in the same setting: in the case of `O=C(Nc1nnc(S(=O)(=O)N2CCc3ccccc32)s1)c1ccccc1Cl` it was inactive: 7.87%; in that of `CCOC(=O)c1c(C)[nH]c(CCC(=O)NCCCN2CCN(c3ccccc3F)CC2)c1C`, inactive: 4.35%.
With `Cc1c2cnn(CC(=O)N3CCN(c4ccc(F)cc4)CC3)c(=O)c2c(C)n1Cc1ccccc1F`, the “activity change, negative = inhibition” value is inactive: 0.0492%.
Still for that read-out and setting: the figure for `Cc1cc(C)cc(-n2ccnc2SCC(=O)Nc2nc3ccc(C)cc3s2)c1` is inactive: 0.643%; for `COc1ccc(-c2nc(Cn3c(=O)cc(C)c4c(C)nn(-c5ccccc5)c43)c(C)o2)c(OC)c1` it is inactive: -10%.
On the same count and under the same terms, the figure for `CN(C)c1ccc(CNC(=O)Cn2ccc3cc(S(=O)(=O)N4CCCCCC4)ccc32)cc1` is inactive: 0.202%; for `Cc1cccc(OCC(=O)Nc2ccc(-c3nc4cc(C)ccc4o3)c(O)c2)c1` it is inactive: 10.5%.
Take `CCC1CN(C(=O)N2CCC(C(=O)NCCC3=CCCCC3)CC2)c2cc(C)ccc2O1` (stereo unspecified): the “activity change, negative = inhibition” value was inactive: 5%.
On to `CCn1cc2nc(SCc3ccc(C)cc3)n(CCc3ccccc3)c(=O)c2n1`, for which the “activity change, negative = inhibition” value is inactive: -2.47%.
The same measure, in the same setting: in the case of `Cc1ccc(OCC(=O)Nc2ccc(Cl)c(-c3nc4ccccc4[nH]3)c2)cc1C` it was inactive: -11.6%.
For the molecule `COc1ccc(S(=O)(=O)N(CC(=O)N(C)Cc2ccccc2)c2ccc(Cl)cc2)cc1`, the “activity change, negative = inhibition” value was inactive: -2.32%.
